Some of the results follow. Binding of human transcription factors and regulators to the viral nucleoprotein by AlphaScreen, crude cell-free proteins, amounts not normalised, one pass. Fold of the Venus control; higher = more signal. No active / inactive call. Single-pass screen; sequences are the whole Swiss-Prot entries looked up by name.
B1: HOXD3, P31249 (protein)
chain: MLFEQGQQALELPECTMQKAAYYENPGLFGGYGYSKTTDTYGYSTPHQPYPPPAAASSLDTDYPGSACSIQSSAPLRAPAHKGAELNGSCMRPGTGNSQGGGGGSQPPGLNSEQQPPQPPPPPPTLPPSSPTNPGGGVPAKKPKGGPNASSSSATISKQIFPWMKESRQNSKQKNSCATAGESCEDKSPPGPASKRVRTAYTSAQLVELEKEFHFNRYLCRPRRVEMANLLNLTERQIKIWFQNRRMKYKKDQKAKGILHSPASQSPERSPPLGGAAGHVAYSGQLPPVPGLAYDAPSPPAFAKSQPNMYGLAAYTAPLSSCLPQQKRYAAPEFEPHPMASNGGGFASANLQGSPVYVGGNFVESMAPASGPVFNLGHLSHPSSASVDYSCAAQIPGNHHHGPCDPHPTYTDLSAHHSSQGRLPEAPKLTHL
B2: ZNF155, Q12901 (protein)
chain: MTTFKEAVTFKDVAVVFTEEELGLLDPAQRKLYRDVMLENFRNLLSVGHQPFHQDTCHFLREEKFWMMGTATQREGNSGGKIQTELESVPEAGAHEEWSCQQIWEQIAKDLTRSQDSIINNSQFFENGDVPSQVEAGLPTIHTGQKPSQGGKCKQSISDVPIFDLPQQLYSEEKSYTCDECGKSICYISALHVHQRVHVGEKLFMCDVCGKEFSQSSHLQTHQRVHTGEKPFKCEQCGKGFSRRSALNVHRKLHTGEKPYICEACGKAFIHDSQLKEHKRIHTGEKPFKCDICGKTFYFRSRLKSHSMVHTGEKPFRCDTCDKSFHQRSALNRHCMVHTGEKPYRCEQCGKGFIGRLDFYKHQVVHTGEKPYNCKECGKSFRWSSCLLNHQRVHSGEKSFKCEECGKGFYTNSQLSSHQRSHSGEKPYKCEECGKGYVTKFNLDLHQRVHTGERPYNCKECGKNFSRASSILNHKRLHCQKKPFKCEDCGKRLVHRTYRKDQPRDYSGENPSKCEDCGRRYKRRLNLDILLSLFLNDT
B3: LMO4, P61968 (protein)
chain: MVNPGSSSQPPPVTAGSLSWKRCAGCGGKIADRFLLYAMDSYWHSRCLKCSCCQAQLGDIGTSCYTKSGMILCRNDYIRLFGNSGACSACGQSIPASELVMRAQGNVYHLKCFTCSTCRNRLVPGDRFHYINGSLFCEHDRPTALINGHLNSLQSNPLLPDQKVC
B4: PTCH1, Q13635 (protein)
chain: MASAGNAAEPQDRGGGGSGCIGAPGRPAGGGRRRRTGGLRRAAAPDRDYLHRPSYCDAAFALEQISKGKATGRKAPLWLRAKFQRLLFKLGCYIQKNCGKFLVVGLLIFGAFAVGLKAANLETNVEELWVEVGGRVSRELNYTRQKIGEEAMFNPQLMIQTPKEEGANVLTTEALLQHLDSALQASRVHVYMYNRQWKLEHLCYKSGELITETGYMDQIIEYLYPCLIITPLDCFWEGAKLQSGTAYLLGKPPLRWTNFDPLEFLEELKKINYQVDSWEEMLNKAEVGHGYMDRPCLNPADPDCPATAPNKNSTKPLDMALVLNGGCHGLSRKYMHWQEELIVGGTVKNSTGKLVSAHALQTMFQLMTPKQMYEHFKGYEYVSHINWNEDKAAAILEAWQRTYVEVVHQSVAQNSTQKVLSFTTTTLDDILKSFSDVSVIRVASGYLLMLAYACLTMLRWDCSKSQGAVGLAGVLLVALSVAAGLGLCSLIGISFNAATTQVLPFLALGVGVDDVFLLAHAFSETGQNKRIPFEDRTGECLKRTGASVALTSISNVTAFFMAALIPIPALRAFSLQAAVVVVFNFAMVLLIFPAILSMDLYRREDRRLDIFCCFTSPCVSRVIQVEPQAYTDTHDNTRYSPPPPYSSHSFAHETQITMQSTVQLRTEYDPHTHVYYTTAEPRSEISVQPVTVTQDTLSCQSPESTSSTRDLLSQFSDSSLHCLEPPCTKWTLSSFAEKHYAPFLLKPKAKVVVIFLFLGLLGVSLYGTTRVRDGLDLTDIVPRETREYDFIAAQFKYFSFYNMYIVTQKADYPNIQHLLYDLHRSFSNVKYVMLEENKQLPKMWLHYFRDWLQGLQDAFDSDWETGKIMPNNYKNGSDDGVLAYKLLVQTGSRDKPIDISQLTKQRLVDADGIINPSAFYIYLTAWVSNDPVAYAASQANIRPHRPEWVHDKADYMPETRLRIPAAEPIEYAQFPFYLNGLRDTSDFVEAIEKVRTICSNYTSLGLSSYPNGYPFLFWEQYIGLRHWLLLFISVVLACTFLVCAVFLLNPWTAGIIVMVLALMTVELFGMMGLIGIKLSAVPVVILIASVGIGVEFTVHVALAFLTAIGDKNRRAVLALEHMFAPVLDGAVSTLLGVLMLAGSEFDFIVRYFFAVLAILTILGVLNGLVLLPVLLSFFGPYPEVSPANGLNRLPTPSPEPPPSVVRFAMPPGHTHSGSDSSDSEYSSQTTVSGLSEELRHYEAQQGAGGPAHQVIVEATENPVFAHSTVVHPESRHHPPSNPRQQPHLDSGSLPPGRQGQQPRRDPPREGLWPPPYRPRRDAFEISTEGHSGPSNRARWGPRGARSHNPRNPASTAMGSSVPGYCQPITTVTASASVTVAVHPPPVPGPGRNPRGGLCPGYPETDHGLFEDPHVPFHVRCERRDSKVEVIELQDVECEERPRGSSSN
B5: MYPOP, Q86VE0 (protein)
chain: MASAAAGEAEETTRLRKPRFSFEENQILIREVRAHYPQLYGAQSRRVSVAERRRVWDGIAAKINGITSWKRTGQEVQKRWNDFKRRTKEKLARVPHSTQGAGPAAEDAFSAEEETIFAILGPGVAAPGAGAGAEEPPAAPSSQPPPPSACPQRYVLSEDRREDRRADTSAHSKAGSSSPEPWARPSCTPQEGGCPRPKERESPPPSALQPVQLPRLALSPPPPAPPLPPPPPLAQVAPSPPSPPPPPRPPPTLSASDPSLDFLRAQQETANAIRELAGTLRQGLAKLSEALSALLPLLPGTPVDSLPPPLPPPPPPPPPPRPVLPPPAPKVEITPEPVSVVAAVVDGAVVAARGVIIAPRSEEGAPRPPPAPLPPHDSPPHKRRKGFPTRKRRGRWKSP
B6: TRERF1, Q96PN7 (protein)
chain: MGDQQLYKTNHVAHGSENLFYQQPPLGVHSGLNHNYGNAVTGGGMDAPQASPISPHFPQDTRDGLGLPVGSKNLGQMDTSRQGGWGSHAGPGNHVQLRGNLANSNMMWGAPAQAEPTDGYQYTYSQASEIRTQKLTSGVLHKLDSFTQVFANQNLRIQVNNMAQVLHTQSAVMDGAPDSALRQLLSQKPMEPPAPAIPSRYQQVPQQPHPGFTGGLSKPALQVGQHPTQGHLYYDYQQPLAQVPVQGGQPLQAPQMLSQHMQQMQQHQYYPPQQQQQAGQQRISMQEIQTQPQQIRPSQPQPPPQQQQPQQLQLQQRQGSMQIPQYYQPQPMMQHLQEQQQQQMHLQPPSYHRDPHQYTPEQAHTVQLIPLGSMSQYYYQEPQQPYSHPLYQQSHLSQHQQREDSQLKTYSSDRQAQAMLSSHGDLGPPDTGMGDPASSDLTRVSSTLPHRPLLSPSGIHLNNMGPQHQQLSPSAMWPQMHLPDGRAQPGSPESSGQPKGAFGEQFDAKNKLTCSICLKEFKNLPALNGHMRSHGGMRASPNLKQEEGEKVLPPQPQPPLPPPPPPPPPPQLPPEAESLTPMVMPVSVPVKLLPPKPSSQGFTNSTVAAPSARDKPASSMSDDEMPVLEIPRKHQPSVPKAEEPLKTVQEKKKFRHRPEPLFIPPPPSYNPNPAASYSGATLYQSQLRSPRVLGDHLLLDPTHELPPYTPPPMLSPVRQGSGLFSNVLISGHGPGAHPQLPLTPLTPTPRVLLCRSNSIDGSNVTVTPGPGEQTVDVEPRINIGLRFQAEIPELQDISALAQDTHKATLVWKPWPELENHDLQQRVENLLNLCCSSALPGGGTNSEFALHSLFEAKGDVMVALEMLLLRKPVRLKCHPLANYHYAGSDKWTSLERKLFNKALATYSKDFIFVQKMVKSKTVAQCVEYYYTWKKIMRLGRKHRTRLAEIIDDCVTSEEEEELEEEEEEDPEEDRKSTKEEESEVPKSPEPPPVPVLAPTEGPPLQALGQPSGSFICEMPNCGAVFSSRQALNGHARIHGGTNQVTKARGAIPSGKQKPGGTQSGYCSVKSSPSHSTTSGETDPTTIFPCKECGKVFFKIKSRNAHMKTHRQQEEQQRQKAQKAAFAAEMAATIERTTGPVGAPGLLPLDQLSLIKPIKDVDILDDDVVQQLGGVMEEAEVVDTDLLLDDQDSVLLQGDAEL
B7: PYDC1, Q8WXC3 (protein)
chain: MGTKREAILKVLENLTPEELKKFKMKLGTVPLREGFERIPRGALGQLDIVDLTDKLVASYYEDYAAELVVAVLRDMRMLEEAARLQRAA
B8: TCF7, P36402 (protein)
chain: MPQLDSGGGGAGGGDDLGAPDELLAFQDEGEEQDDKSRDSAAGPERDLAELKSSLVNESEGAAGGAGIPGVPGAGAGARGEAEALGREHAAQRLFPDKLPEPLEDGLKAPECTSGMYKETVYSAFNLLMHYPPPSGAGQHPQPQPPLHKANQPPHGVPQLSLYEHFNSPHPTPAPADISQKQVHRPLQTPDLSGFYSLTSGSMGQLPHTVSWFTHPSLMLGSGVPGHPAAIPHPAIVPPSGKQELQPFDRNLKTQAESKAEKEAKKPTIKKPLNAFMLYMKEMRAKVIAECTLKESAAINQILGRRWHALSREEQAKYYELARKERQLHMQLYPGWSARDNYGKKKRRSREKHQESTTGGKRNAFGTYPEKAAAPAPFLPMTVL
B9: SPOP, O43791 (protein)
chain: MSRVPSPPPPAEMSSGPVAESWCYTQIKVVKFSYMWTINNFSFCREEMGEVIKSSTFSSGANDKLKWCLRVNPKGLDEESKDYLSLYLLLVSCPKSEVRAKFKFSILNAKGEETKAMESQRAYRFVQGKDWGFKKFIRRDFLLDEANGLLPDDKLTLFCEVSVVQDSVNISGQNTMNMVKVPECRLADELGGLWENSRFTDCCLCVAGQEFQAHKAILAARSPVFSAMFEHEMEESKKNRVEINDVEPEVFKEMMCFIYTGKAPNLDKMADDLLAAADKYALERLKVMCEDALCSNLSVENAAEILILADLHSADQLKTQAVDFINYHASDVLETSGWKSMVVSHPHLVAEAYRSLASAQCPFLGPPRKRLKQS

Target: nucleoprotein N of Crimean-Congo hemorrhagic fever virus
Assay: AlphaScreen luminescence signal relative to Venus negative control (fold); higher = stronger binding to CCHFV N
Experimental: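 AlphaScreen binding of cell-free made, FLAG-GST-tagged human transcription factors and regulators (crude translation products) to biotinylated N protein; signal as fold of the FLAG-GST-Venus control. One pass.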

Binder	AlphaScreen luminescence signal
B1	4.19
B2	2.74
B3	2
B4	3.77
B5	3.4
B6	3.58
B7	1.35
B8	1.67
B9	2

— the supplement of paper PMC12423691
